For one molecule, binding results are on record in PMC5928365.

No constants are given. Whether binding was seen depends on the method and setting. In cells and extracts the contact can be indirect. Some results given as binding are weak or reduced against the parent protein; the word gives no strength. For some of these results: Sequences can lack the tags named with a protein.

Assay [1] deals with Ror2 (human (endogenous in HEK293T)) (UniProt Q01974). In words: condition: only cells treated with herbimycin (20 ng·mL^−1); co-IP; Ror2–p120-catenin co-immunoprecipitation from cells treated with the tyrosine kinase inhibitor herbimycin (Fig. S7).
Assay [2] has the same target. Briefly: co-IP; Ror2 immunoprecipitated from extracts of control or p120-catenin CRISPR HEK293T cells treated with control or Wnt5a-conditioned medium for 5 min; associated proteins by Western blot. A general note: Immunoblotting shows a protein as a band on a membrane.
Assay [3] shares this target. Briefly: co-IP; Ror2–p120-catenin co-immunoprecipitation from cells treated with the tyrosine kinase inhibitor herbimycin (Fig. S7).
Assay [4] addresses T1, GST–cytoRor2 (cytoplasmic domain of Ror2, amino acids 426–944) (mouse (from the plasmid name pcDNA-mRor2-HA)) (UniProt Q9Z138).
T1 sequence: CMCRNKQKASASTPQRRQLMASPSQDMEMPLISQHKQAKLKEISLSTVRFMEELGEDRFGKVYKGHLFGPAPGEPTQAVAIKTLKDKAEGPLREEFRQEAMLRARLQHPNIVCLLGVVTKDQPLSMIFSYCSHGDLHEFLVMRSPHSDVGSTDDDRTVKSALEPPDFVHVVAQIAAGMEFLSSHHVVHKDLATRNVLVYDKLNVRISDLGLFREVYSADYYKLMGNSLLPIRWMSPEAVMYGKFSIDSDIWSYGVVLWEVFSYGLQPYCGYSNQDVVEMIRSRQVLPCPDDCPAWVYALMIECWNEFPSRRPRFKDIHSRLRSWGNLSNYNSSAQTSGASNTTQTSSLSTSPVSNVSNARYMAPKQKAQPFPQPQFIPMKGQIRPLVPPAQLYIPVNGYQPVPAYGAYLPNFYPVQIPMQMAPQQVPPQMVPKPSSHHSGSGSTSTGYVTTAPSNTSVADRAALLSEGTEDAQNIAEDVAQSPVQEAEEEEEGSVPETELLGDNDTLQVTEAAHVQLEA
Briefly: pull-down; 10 pmol GST–cyto-Ror2 as bait with 700 μg total cell extracts from control, p120-catenin or CK1ε HEK293T CRISPR cells; Western blot; only the target purified.

B1: p120-catenin (protein, UniProt O60716 1-968)
chain: MDDSEVESTASILASVKEQEAQFEKLTRALEEERRHVSAQLERVRVSPQDANPLMANGTLTRRHQNGRFVGDADLERQKFSDLKLNGPQDHSHLLYSTIPRMQEPGQIVETYTEEDPEGAMSVVSVETSDDGTTRRTETTVKKVVKTVTTRTVQPVAMGPDGLPVDASSVSNNYIQTLGRDFRKNGNGGPGPYVGQAGTATLPRNFHYPPDGYSRHYEDGYPGGSDNYGSLSRVTRIEERYRPSMEGYRAPSRQDVYGPQPQVRVGGSSVDLHRFHPEPYGLEDDQRSMGYDDLDYGMMSDYGTARRTGTPSDPRRRLRSYEDMIGEEVPSDQYYWAPLAQHERGSLASLDSLRKGGPPPPNWRQPELPEVIAMLGFRLDAVKSNAAAYLQHLCYRNDKVKTDVRKLKGIPVLVGLLDHPKKEVHLGACGALKNISFGRDQDNKIAIKNCDGVPALVRLLRKARDMDLTEVITGTLWNLSSHDSIKMEIVDHALHALTDEVIIPHSGWEREPNEDCKPRHIEWESVLTNTAGCLRNVSSERSEARRKLRECDGLVDALIFIVQAEIGQKDSDSKLVENCVCLLRNLSYQVHREIPQAERYQEAAPNVANNTGPHAASCFGAKKGKDEWFSRGKKPIEDPANDTVDFPKRTSPARGYELLFQPEVVRIYISLLKESKTPAILEASAGAIQNLCAGRWTYGRYIRSALRQEKALSAIADLLTNEHERVVKAASGALRNLAVDARNKELIGKHAIPNLVKNLPGGQQNSSWNFSEDTVISILNTINEVIAENLEAAKKLRETQGIEKLVLINKSGNRSEKEVRAAALVLQTIWGYKELRKPLEKEGWKKSDFQVNLNNASRSQSSHSYDDSTLPLIDRNQKSDKKPDREEIQMSNMGSNTKSLDNNYSTPNERGDHNRTLDRSGDLGDMEPLKGTTPLMQDEGQESLEEELDVLVLDDEGGQVSYPSMQKI
Consider B1, for which the binding entry in assay [1] is reported as “no binding”; in assay [2], “binds”; in assay [3], “binds”; in assay [4] it was “binds”.
